The other results are listed elsewhere or left out. Single values are uncertain, as repeats are few or missing.
system: G361; experiment: cell count relative to DMSO control; melanoma cells; higher = more viable cells; conditions: library dose: standard library concentration; 72 h
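Further: cells treated in 1,536-well plates, then fixed and DAPI-stained, with nuclei counted from automated high-throughput microscope images.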

Compound	cell count [%]
CCc1ccc(CCOc2ccc(CC3SC(=O)NC3=O)cc2)nc1 (stereo not given) [pioglitazone] + Cc1cc([N+](=O)[O-])ccc1NS(=O)(=O)c1cc(Cl)ccc1Cl [FH535] (first compound 10 µM, partner dose 5 µM)	37.8
CCCCCCCCc1ccc(CCC(N)(CO)CO)cc1 [fingolimod] + COCC[n+]1c2c(n(Cc3cnccn3)c1C)C(=O)c1ccccc1C2=O [YM155] (first compound 10 µM, partner dose 0.002 µM)	1.03
NC(=O)c1ccc(N(C(N)=O)c2c(F)cccc2F)nc1-c1ccc(F)cc1F + O=C1NC(=O)/C(=C/c2ccc(-c3ccc(F)cc3O)o2)S1 [AS252424] (first compound 2 µM, partner dose 5 µM)	81.7
NC(=O)c1ccc(N(C(N)=O)c2c(F)cccc2F)nc1-c1ccc(F)cc1F + Cc1nc(Nc2ncc(C(=O)Nc3c(C)cccc3Cl)s2)cc(N2CCN(CCO)CC2)n1 [dasatanib] (first compound 2 µM, partner dose 0.02 µM)	72.5
CC(C)(C)c1cnc(CSc2cnc(NC(=O)C3CCNCC3)s2)o1 + COc1cc2c(Oc3ccc4[nH]c(C)cc4c3F)ncnc2cc1OCCCN1CCCC1 [cediranib] (first compound 0.05 µM, partner dose 2 µM)	108
Cc1ccc(NC(=O)c2cccc(N(C)C)c2)cc1NC(=O)c1ccc(O)cc1 + CO[C@@H]1[C@H](N(C)C(=O)c2ccccc2)C[C@H]2O[C@]1(C)n1c3ccccc3c3c4c(c5c6ccccc6n2c5c31)C(=O)NC4 [Midostaurin] (first compound 10 µM, partner dose 0.4 µM)	49
CCCCCCCCc1ccc(CCC(N)(CO)CO)cc1 [fingolimod] + Oc1nc(-c2ccc(C(F)(F)F)cc2)nc2c1CSCC2 [XAV939] (first compound 10 µM, partner dose 10 µM)	73.8
Cc1ccc(NC(=O)c2cccc(N(C)C)c2)cc1NC(=O)c1ccc(O)cc1 + CN(NC(=O)CC(=O)NN(C)C(=S)c1ccccc1)C(=S)c1ccccc1 [STA4783] (first compound 10 µM, partner dose 0.03 µM)	24.9

system: IPC-298; experiment: as above; conditions: library dose: standard library concentration; 72 h

Compound	cell count [%]
CCCCCCCCc1ccc(CCC(N)(CO)CO)cc1 [fingolimod] + Cc1cc([N+](=O)[O-])ccc1NS(=O)(=O)c1cc(Cl)ccc1Cl [FH535] (first compound 10 µM, partner dose 5 µM)	49.1
CN(NC(=O)CC(=O)NN(C)C(=S)c1ccccc1)C(=S)c1ccccc1 + COc1cc2c(Oc3ccc4[nH]c(C)cc4c3F)ncnc2cc1OCCCN1CCCC1 [cediranib] (first compound 0.03 µM, partner dose 2 µM)	85.4
CCc1ccc(CCOc2ccc(CC3SC(=O)NC3=O)cc2)nc1 (stereo not given) [pioglitazone] + O=C1NC(=O)/C(=C/c2ccc(-c3ccc(F)cc3O)o2)S1 [AS252424] (first compound 10 µM, partner dose 5 µM)	79.7
Cc1ccc(NC(=O)c2cccc(N(C)C)c2)cc1NC(=O)c1ccc(O)cc1 + CCCCCCCCCCCC1=C(O)C(=O)C=C(O)C1=O [Embelin] (first compound 10 µM, partner dose 6 µM)	89.6
Cc1ccc(NC(=O)c2cccc(N(C)C)c2)cc1NC(=O)c1ccc(O)cc1 + COc1ccc2c(c1)CCC1C2CCC2(C)C(NCCCCCCN3C(=O)C=CC3=O)CCC12 [U73122] (first compound 10 µM, partner dose 2 µM)	102
CC(C)(C)c1cnc(CSc2cnc(NC(=O)C3CCNCC3)s2)o1 + CN(NC(=O)CC(=O)NN(C)C(=S)c1ccccc1)C(=S)c1ccccc1 [STA4783] (first compound 0.05 µM, partner dose 0.03 µM)	69.2
CN(NC(=O)CC(=O)NN(C)C(=S)c1ccccc1)C(=S)c1ccccc1 + COc1cc(N2CCC(N3CCN(C)CC3)CC2)ccc1Nc1ncc(Cl)c(Nc2ccccc2S(=O)(=O)C(C)C)n1 [NVP-TAE684] (first compound 0.03 µM, partner dose 0.4 µM)	66.9
CN(NC(=O)CC(=O)NN(C)C(=S)c1ccccc1)C(=S)c1ccccc1 + CCCCCCCCCCCC1=C(O)C(=O)C=C(O)C1=O [Embelin] (first compound 0.03 µM, partner dose 6 µM)	38.9
CC(C)(C)c1cnc(CSc2cnc(NC(=O)C3CCNCC3)s2)o1 + O=C(Nc1ccccc1)c1cc([N+](=O)[O-])ccc1Cl [GW9662] (first compound 0.05 µM, partner dose 10 µM)	116
CCCCCCCCc1ccc(CCC(N)(CO)CO)cc1 [fingolimod] + CCCS(=O)(=O)Nc1ccc(F)c(C(=O)c2c[nH]c3ncc(Cl)cc23)c1F [PLX4720] (first compound 10 µM, partner dose 0.4 µM)	25.8
CCCCCCCCc1ccc(CCC(N)(CO)CO)cc1 [fingolimod] + O=C(O)C(=O)Nc1sc2c(c1C(=O)O)CCNC2 [TCS401] (first compound 10 µM, partner dose 8.33333 µM)	53.3
CCc1ccc(CCOc2ccc(CC3SC(=O)NC3=O)cc2)nc1 (stereo not given) [pioglitazone] + COC(=O)c1sccc1S(=O)(=O)Nc1ccc(Nc2ccccc2)cc1OC [GSK0660] (first compound 10 µM, partner dose 5 µM)	98.5
COc1cc2c(Oc3ccc4[nH]c(C)cc4c3F)ncnc2cc1OCCCN1CCCC1 [cediranib] + COc1cc(N2CCC(N3CCN(C)CC3)CC2)ccc1Nc1ncc(Cl)c(Nc2ccccc2S(=O)(=O)C(C)C)n1 [NVP-TAE684] (first compound 2 µM, partner dose 0.4 µM)	85.1
CC(C)(C)c1cnc(CSc2cnc(NC(=O)C3CCNCC3)s2)o1 + CCCCCCCCCCCC1=C(O)C(=O)C=C(O)C1=O [Embelin] (first compound 0.05 µM, partner dose 6 µM)	71.9
CCCCCCCCc1ccc(CCC(N)(CO)CO)cc1 [fingolimod] + CN1CCN(c2ccc3nc(-c4c(N)c5c(F)cccc5[nH]c4=O)[nH]c3c2)CC1 [Dovitinib] (first compound 10 µM, partner dose 0.5 µM)	58.2
CCCCCCCCc1ccc(CCC(N)(CO)CO)cc1 [fingolimod] + COc1ccc2c(c1)CCC1C2CCC2(C)C(NCCCCCCN3C(=O)C=CC3=O)CCC12 [U73122] (first compound 10 µM, partner dose 2 µM)	71.3
Cc1ccc(NC(=O)c2cccc(N(C)C)c2)cc1NC(=O)c1ccc(O)cc1 + Cc1cc(N2CCOCC2)cc2[nH]c(-c3c(NC[C@@H](O)c4cccc(Cl)c4)cc[nH]c3=O)nc12 [BMS536924] (first compound 10 µM, partner dose 1 µM)	96.8
NC(=O)c1ccc(N(C(N)=O)c2c(F)cccc2F)nc1-c1ccc(F)cc1F + CCCCCCCCCCCC1=C(O)C(=O)C=C(O)C1=O [Embelin] (first compound 2 µM, partner dose 6 µM)	97.3
NC(=O)c1ccc(N(C(N)=O)c2c(F)cccc2F)nc1-c1ccc(F)cc1F + Cn1nnc2c(C(N)=O)ncn2c1=O [temozolomide] (first compound 2 µM, partner dose 10 µM)	89.9
CN(NC(=O)CC(=O)NN(C)C(=S)c1ccccc1)C(=S)c1ccccc1 + COc1ccc2c(c1)CCC1C2CCC2(C)C(NCCCCCCN3C(=O)C=CC3=O)CCC12 [U73122] (first compound 0.03 µM, partner dose 2 µM)	100
NC(=O)c1ccc(N(C(N)=O)c2c(F)cccc2F)nc1-c1ccc(F)cc1F + CN(NC(=O)CC(=O)NN(C)C(=S)c1ccccc1)C(=S)c1ccccc1 [STA4783] (first compound 2 µM, partner dose 0.03 µM)	81.1
Cc1ccc(NC(=O)c2cccc(N(C)C)c2)cc1NC(=O)c1ccc(O)cc1 + O=C(Nc1cccc(Cl)c1)Nc1ncc(CCNc2ncnc3ccsc23)s1 [SNS314] (first compound 10 µM, partner dose 0.004 µM)	56.6
CCCCCCCCc1ccc(CCC(N)(CO)CO)cc1 [fingolimod] + COC(=O)c1sccc1S(=O)(=O)Nc1ccc(Nc2ccccc2)cc1OC [GSK0660] (first compound 10 µM, partner dose 5 µM)	45.6
CCCCCCCCc1ccc(CCC(N)(CO)CO)cc1 [fingolimod] + CCCCCCCCCCCC1=C(O)C(=O)C=C(O)C1=O [Embelin] (first compound 10 µM, partner dose 6 µM)	61.7
NC(=O)c1ccc(N(C(N)=O)c2c(F)cccc2F)nc1-c1ccc(F)cc1F + CN1CCN(c2ccc3nc(-c4c(N)c5c(F)cccc5[nH]c4=O)[nH]c3c2)CC1 [Dovitinib] (first compound 2 µM, partner dose 0.5 µM)	82.1
CC(C)(C)c1cnc(CSc2cnc(NC(=O)C3CCNCC3)s2)o1 + NCC(=O)Nc1ccc(-n2nc(C(F)(F)F)cc2-c2ccc3c(ccc4ccccc43)c2)cc1 [OSU03012] (first compound 0.05 µM, partner dose 5 µM)	62.8
CCCCCCCCc1ccc(CCC(N)(CO)CO)cc1 [fingolimod] + NC1(c2ccc(-c3nc4ccn5c(=O)[nH]nc5c4cc3-c3ccccc3)cc2)CCC1 [MK2206] (first compound 10 µM, partner dose 2 µM)	58.3

— the supplement of paper PMC4604168 (melanoma cell lines)
